Laboratory results taken from the supplement of paper PMC10724272.
MIC of invasive clinical C. tropicalis isolates, CLSI broth microdilution (fluconazole 0.12-256 mg/L, up to 1,024 for the azole-resistant cluster and its neighbour group; other ranges not stated); higher = less susceptible. Call: susceptible or wild type [S] / resistant or non-wild type [R] by CLSI breakpoints or cut-offs; intermediate and dose-dependent carry no call. '<=' and '>=' at the end values are inferred; the source marks only some of them. Isolates are numbered anew.

Compound: CCC(C)n1ncn(-c2ccc(N3CCN(c4ccc(OCC5COC(Cn6cncn6)(c6ccc(Cl)cc6Cl)O5)cc4)CC3)cc2)c1=O [itraconazole]
Experiment: CLSI broth microdilution.

| Test System | MIC |
| --- | --- |
| Candida tropicalis isolate 140 (ERG11 copies: 2, Erg11p: Y132F, S154F (heterozygous)) | 0.25 mg/L [S] |
| Candida tropicalis isolate 152 (ERG11 copies: 2, Erg11p: no key change) | 0.015 mg/L [S] |
| Candida tropicalis isolate 165 (ERG11 copies: 2, Erg11p: no key change) | 0.5 mg/L [S] |
| Candida tropicalis isolate 193 (ERG11 copies: 8, Erg11p: Y132F, S154F (heterozygous)) | 1 mg/L [R] |
| Candida tropicalis isolate 316 (ERG11 copies: 2, Erg11p: Y132F, S154F (heterozygous)) | ≥ 16 mg/L [R] |
| Candida tropicalis isolate 240 (ERG11 copies: 2, Erg11p: no key change) | 0.25 mg/L [S] |
| Candida tropicalis isolate 418 (ERG11 copies: 2, Erg11p: no key change) | 0.25 mg/L [S] |
| Candida tropicalis isolate 379 (ERG11 copies: 2, Erg11p: no key change) | 0.5 mg/L [S] |
| Candida tropicalis isolate 395 (ERG11 copies: 2, Erg11p: no key change) | 0.12 mg/L [S] |
| Candida tropicalis isolate 196 (ERG11 copies: 2, Erg11p: no key change) | 0.12 mg/L [S] |
| Candida tropicalis isolate 190 (ERG11 copies: 5, Erg11p: Y132F, S154F (heterozygous)) | 1 mg/L [R] |
| Candida tropicalis isolate 304 (ERG11 copies: 2, Erg11p: Y132F, S154F (heterozygous)) | 0.25 mg/L [S] |
| Candida tropicalis isolate 173 (ERG11 copies: 2, Erg11p: no key change) | 0.12 mg/L [S] |
| Candida tropicalis isolate 200 (ERG11 copies: 2, Erg11p: no key change) | 0.12 mg/L [S] |
| Candida tropicalis isolate 255 (ERG11 copies: 2, Erg11p: no key change) | 0.5 mg/L [S] |
| Candida tropicalis isolate 116 (ERG11 copies: 2, Erg11p: no key change) | 0.25 mg/L [S] |

| Test System | MIC |
| --- | --- |
| Candida tropicalis isolate 123 (ERG11 copies: 2, Erg11p: Y132F, S154F (heterozygous)) | 0.25 mg/L [S] |
| Candida tropicalis isolate 214 (ERG11 copies: 2, Erg11p: no key change) | 0.12 mg/L [S] |
| Candida tropicalis isolate 70 (ERG11 copies: 7, Erg11p: Y132F, S154F (heterozygous)) | 1 mg/L [R] |
| Candida tropicalis isolate 144 (ERG11 copies: 2, Erg11p: no key change) | 0.25 mg/L [S] |
| Candida tropicalis isolate 263 (ERG11 copies: 6, Erg11p: Y132F, S154F (heterozygous)) | 0.5 mg/L [S] |
| Candida tropicalis isolate 102 (ERG11 copies: 2, Erg11p: no key change) | 0.12 mg/L [S] |
| Candida tropicalis isolate 242 (ERG11 copies: 2, Erg11p: no key change) | 0.12 mg/L [S] |
| Candida tropicalis isolate 372 (ERG11 copies: 2, Erg11p: no key change) | 0.06 mg/L [S] |
| Candida tropicalis isolate 310 (ERG11 copies: 2, Erg11p: no key change) | 0.25 mg/L [S] |
| Candida tropicalis isolate 129 (ERG11 copies: 7, Erg11p: Y132F, S154F (heterozygous)) | 1 mg/L [R] |
| Candida tropicalis isolate 16 (ERG11 copies: 2, Erg11p: no key change) | 0.25 mg/L [S] |
| Candida tropicalis isolate 136 (ERG11 copies: 2, Erg11p: no key change) | 0.06 mg/L [S] |
| Candida tropicalis isolate 207 (ERG11 copies: 2, Erg11p: Y132F, S154F (homozygous)) | 0.25 mg/L [S] |
| Candida tropicalis isolate 46 (ERG11 copies: 2, Erg11p: no key change) | 0.25 mg/L [S] |
| Candida tropicalis isolate 389 (ERG11 copies: 2, Erg11p: no key change) | 0.25 mg/L [S] |

Compound: CC[C@@H]([C@H](C)O)n1ncn(-c2ccc(N3CCN(c4ccc(OC[C@@H]5CO[C@@](Cn6cncn6)(c6ccc(F)cc6F)C5)cc4)CC3)cc2)c1=O [posaconazole]
Experiment: CLSI broth microdilution.

| Test System | MIC |
| --- | --- |
| Candida tropicalis isolate 140 (ERG11 copies: 2, Erg11p: Y132F, S154F (heterozygous)) | 0.12 mg/L [S] |
| Candida tropicalis isolate 152 (ERG11 copies: 2, Erg11p: no key change) | 0.015 mg/L [S] |
| Candida tropicalis isolate 165 (ERG11 copies: 2, Erg11p: no key change) | 0.5 mg/L [R] |
| Candida tropicalis isolate 193 (ERG11 copies: 8, Erg11p: Y132F, S154F (heterozygous)) | 1 mg/L [R] |
| Candida tropicalis isolate 316 (ERG11 copies: 2, Erg11p: Y132F, S154F (heterozygous)) | ≥ 8 mg/L [R] |
| Candida tropicalis isolate 240 (ERG11 copies: 2, Erg11p: no key change) | 0.25 mg/L [S] |
| Candida tropicalis isolate 418 (ERG11 copies: 2, Erg11p: no key change) | 0.25 mg/L [S] |
| Candida tropicalis isolate 379 (ERG11 copies: 2, Erg11p: no key change) | 0.5 mg/L [R] |
| Candida tropicalis isolate 395 (ERG11 copies: 2, Erg11p: no key change) | 0.12 mg/L [S] |
| Candida tropicalis isolate 196 (ERG11 copies: 2, Erg11p: no key change) | 0.06 mg/L [S] |
| Candida tropicalis isolate 190 (ERG11 copies: 5, Erg11p: Y132F, S154F (heterozygous)) | 1 mg/L [R] |
| Candida tropicalis isolate 304 (ERG11 copies: 2, Erg11p: Y132F, S154F (heterozygous)) | 0.12 mg/L [S] |
| Candida tropicalis isolate 173 (ERG11 copies: 2, Erg11p: no key change) | 0.25 mg/L [S] |
| Candida tropicalis isolate 200 (ERG11 copies: 2, Erg11p: no key change) | 0.06 mg/L [S] |
| Candida tropicalis isolate 255 (ERG11 copies: 2, Erg11p: no key change) | 0.25 mg/L [S] |
| Candida tropicalis isolate 116 (ERG11 copies: 2, Erg11p: no key change) | 0.25 mg/L [S] |

| Test System | MIC |
| --- | --- |
| Candida tropicalis isolate 123 (ERG11 copies: 2, Erg11p: Y132F, S154F (heterozygous)) | 0.25 mg/L [S] |
| Candida tropicalis isolate 214 (ERG11 copies: 2, Erg11p: no key change) | 0.12 mg/L [S] |
| Candida tropicalis isolate 70 (ERG11 copies: 7, Erg11p: Y132F, S154F (heterozygous)) | 1 mg/L [R] |
| Candida tropicalis isolate 144 (ERG11 copies: 2, Erg11p: no key change) | 0.25 mg/L [S] |
| Candida tropicalis isolate 263 (ERG11 copies: 6, Erg11p: Y132F, S154F (heterozygous)) | 0.5 mg/L [R] |
| Candida tropicalis isolate 102 (ERG11 copies: 2, Erg11p: no key change) | 0.25 mg/L [S] |
| Candida tropicalis isolate 242 (ERG11 copies: 2, Erg11p: no key change) | 0.12 mg/L [S] |
| Candida tropicalis isolate 372 (ERG11 copies: 2, Erg11p: no key change) | 0.03 mg/L [S] |
| Candida tropicalis isolate 310 (ERG11 copies: 2, Erg11p: no key change) | 0.25 mg/L [S] |
| Candida tropicalis isolate 129 (ERG11 copies: 7, Erg11p: Y132F, S154F (heterozygous)) | 1 mg/L [R] |
| Candida tropicalis isolate 16 (ERG11 copies: 2, Erg11p: no key change) | 0.25 mg/L [S] |
| Candida tropicalis isolate 136 (ERG11 copies: 2, Erg11p: no key change) | 0.06 mg/L [S] |
| Candida tropicalis isolate 207 (ERG11 copies: 2, Erg11p: Y132F, S154F (homozygous)) | 0.25 mg/L [S] |
| Candida tropicalis isolate 46 (ERG11 copies: 2, Erg11p: no key change) | 0.25 mg/L [S] |
| Candida tropicalis isolate 389 (ERG11 copies: 2, Erg11p: no key change) | 0.25 mg/L [S] |

Compound: CC[C@H](C)C[C@H](C)CCCCCCCCC(=O)N[C@H]1C[C@@H](O)[C@@H](NCCN)NC(=O)[C@@H]2[C@@H](O)CCN2C(=O)[C@H]([C@H](O)CCN)NC(=O)[C@H]([C@H](O)[C@@H](O)c2ccc(O)cc2)NC(=O)[C@@H]2C[C@@H](O)CN2C(=O)[C@H]([C@@H](C)O)NC1=O [caspofungin]
Experiment: CLSI broth microdilution.

| Test System | MIC |
| --- | --- |
| Candida tropicalis isolate 140 (ERG11 copies: 2, Erg11p: Y132F, S154F (heterozygous)) | 0.03 mg/L [S] |
| Candida tropicalis isolate 152 (ERG11 copies: 2, Erg11p: no key change) | 0.03 mg/L [S] |
| Candida tropicalis isolate 165 (ERG11 copies: 2, Erg11p: no key change) | 0.03 mg/L [S] |
| Candida tropicalis isolate 193 (ERG11 copies: 8, Erg11p: Y132F, S154F (heterozygous)) | 0.06 mg/L [S] |
| Candida tropicalis isolate 316 (ERG11 copies: 2, Erg11p: Y132F, S154F (heterozygous)) | 0.06 mg/L [S] |
| Candida tropicalis isolate 240 (ERG11 copies: 2, Erg11p: no key change) | 0.03 mg/L [S] |
| Candida tropicalis isolate 418 (ERG11 copies: 2, Erg11p: no key change) | 0.06 mg/L [S] |
